Data reported in patent US20190023807A1 (CRESCENDO BIOLOGICS, published 2019).

What was measured:
[1] = target: cynomolgus PSMA, full-length, expressed on CHO cells (cynomolgus, UniProt A0A2K5VNZ0 1-750); experiment: cell-based or functional assay
[2] = target: human PSMA (prostate specific membrane antigen), full-length, expressed on cells (human, UniProt Q04609); experiment: cell-based or functional assay
Chain of UniProt Q04609 (Q04609 whole entry): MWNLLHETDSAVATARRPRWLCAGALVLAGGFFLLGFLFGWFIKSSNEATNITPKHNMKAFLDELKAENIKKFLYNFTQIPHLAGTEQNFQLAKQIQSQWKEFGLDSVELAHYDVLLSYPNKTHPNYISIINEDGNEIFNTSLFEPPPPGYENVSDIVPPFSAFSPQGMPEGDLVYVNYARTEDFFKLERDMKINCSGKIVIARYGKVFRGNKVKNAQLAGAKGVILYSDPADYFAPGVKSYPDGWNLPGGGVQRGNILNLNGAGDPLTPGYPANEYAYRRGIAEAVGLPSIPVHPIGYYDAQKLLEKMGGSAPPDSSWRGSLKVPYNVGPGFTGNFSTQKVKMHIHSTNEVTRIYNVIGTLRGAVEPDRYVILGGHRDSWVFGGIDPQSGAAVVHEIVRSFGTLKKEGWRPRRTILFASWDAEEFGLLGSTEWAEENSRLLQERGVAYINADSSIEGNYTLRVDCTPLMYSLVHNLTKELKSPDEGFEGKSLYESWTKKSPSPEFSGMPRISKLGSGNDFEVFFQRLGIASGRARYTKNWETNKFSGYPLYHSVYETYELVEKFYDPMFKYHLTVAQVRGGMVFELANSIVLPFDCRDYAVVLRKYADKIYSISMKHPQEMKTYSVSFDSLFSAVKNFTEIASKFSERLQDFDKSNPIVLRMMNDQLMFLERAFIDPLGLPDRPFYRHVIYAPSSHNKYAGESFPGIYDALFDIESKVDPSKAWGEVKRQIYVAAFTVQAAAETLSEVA

Row | Binder | His-ZAP cell killing, cyno PSMA Average EC50 [1] [pM] | His-ZAP cell killing, human PSMA Average EC50 [2] [pM]
1 | 1.17-6GS-2.1 (bispecific antibody, not shown: small tags and cut ends) EVQLLESGGGLVQPGGSLRLSCAASGFSFSSYALSWVRQAPGKGLEWVSSIGENNDTTDYAD[sequence of about 20 residues omitted]MNSLRVEDTAVYYCVKDGVHWGQGTLVTVSSGGGGSGGGGSGGGGSGGGGSGGGGSGGGGSEVQLVESGGGVVQPGRSLRLSCAASGFSFSGYGMHWVRQAPGKGLEWVAYISYDGSNKYYADSVKGRFTISRDNSKNTLYLQMNSLRAEDTAVYYCAKDPAWGLRLGESSSYDFDIWGQGTMVTVSS | 15 | 13
2 | 1.17-6GS-2.15 (bispecific antibody, not shown: small tags and cut ends) EVQLLESGGGLVQPGGSLRLSCAASGFSFSSYALSWVRQAPGKGLEWVSSIGENNDTTDYAD[sequence of about 20 residues omitted]MNSLRVEDTAVYYCVKDGVHWGQGTLVTVSSGGGGSGGGGSGGGGSGGGGSGGGGSGGGGSEVQLVESGGGVVQPGRSLRLSCAASGFSFSGYGLHWVRQAPGKGLEWVAYISYDKSNKYYADKVKGRFTISRDNSKNTLYLQMNSLRAEDTAVYYCAKDPAWGLRLGESSSYDFDIWGQGTMVTVSS | 12 | 
3 | 1.17-6GS-2.17 (bispecific antibody, not shown: small tags and cut ends) EVQLLESGGGLVQPGGSLRLSCAASGFSFSSYALSWVRQAPGKGLEWVSSIGENNDTTDYAD[sequence of about 20 residues omitted]MNSLRVEDTAVYYCVKDGVHWGQGTLVTVSSGGGGSGGGGSGGGGSGGGGSGGGGSGGGGSEVQLVESGGGVVQPGRSLRLSCAASGFSFSGYGMHWVRQAPGKGLEWVAYISYDASNKYYADNVKGRFTISRDNSKNTLYLQMNSLRAEDTAVYYCAKDPAWGLRLGESSSYDFDIWGQGTMVTVSS | 10 | 14
4 | 1.17-6GS-2.22 (bispecific antibody, not shown: small tags and cut ends) EVQLLESGGGLVQPGGSLRLSCAASGFSFSSYALSWVRQAPGKGLEWVSSIGENNDTTDYAD[sequence of about 20 residues omitted]MNSLRVEDTAVYYCVKDGVHWGQGTLVTVSSGGGGSGGGGSGGGGSGGGGSGGGGSGGGGSEVQLVESGGGVVQPGRSLRLSCAASGFSFSGYGTHWVRQAPGKGLEWVAYISYDGSNKYYAAPVKGRFTISRDNSKNTLYLQMNSLRAEDTAVYYCAKDAAWGLRLGESSSYDFDIWGQGTMVTVSS | 12 | 18
